The record followed here is PubChem BioAssay AID463173 (ICCB-Longwood Screening Facility, Harvard Medical School, 2010).

About 1,700 (3.3%) of roughly 52,000 compounds were called active. Cut-off read from the data, not from the text of the source: active = survival mostly below about 52% (no sharp cut-off); inactive = mostly above about 56%. This is one part of the list.

The assay relates to Wild type. Nature of the assay: S. aureus survival, RN4220 and DeltatarO strains – OD600, teichoic acid synthesis inhibitors, primary screen (AID 463173). To be noted: S. aureus RN4220 wild type/DeltatarO growth, OD600, 18 h, stronger effect = lower value, screened at 18.75 µg/mL (by protocol).
With `CCOc1ccc(NC(=O)C(NC(=O)C2CCC(C)CC2)C(C)C)cc1` (centres undefined), the survival is inactive: 76%. `CCOC(=O)c1cc(-c2ccccc2)n(CC(=O)N(C)c2ccc(OC)cc2)c1C`: the survival was inactive: 94%. For `NNC(=O)c1c(O)c2ccccc2[nH]c1=O`, the survival is inactive: 84%.

On to `CN(C)S(=O)(=O)c1ccc(C(=O)N2CC(=O)Nc3ccc(Br)cc3C2c2ccc(F)cc2)cc1` (centres undefined), for which the survival is inactive: 98%. The value for `Cc1ccc(CNC(=O)c2ccc(Cn3c(SCc4ccccc4F)nc4cccnc43)cc2)cc1` was inactive: 73%; that for `CC1CCN(C(=O)Cn2c(=O)oc3cc(S(=O)(=O)N4CCCCC4)ccc32)CC1` was inactive: 83%. In the case of `CCOc1cc(CNc2ccc(O)cc2)ccc1OCc1ccc(Cl)cc1`, the survival is active: 10%. With `COc1ccc(CNC(=O)CN(c2ccccc2)S(=O)(=O)N(C)C)cc1` the figure was inactive: 141%; with `CCOC(=O)c1cc2c(=O)n3ccccc3nc2n(CCCOC)c1=NC(=O)C(C)Oc1ccccc1` (centres undefined), inactive: 71%. In the case of `Cc1cccc(-n2c(=O)c3c4c(sc3n3cnnc23)CCCC4)c1`, the survival is inactive: 72%.

In the case of `CCN1CCN(c2c(S(=O)(=O)c3ccc(C)c(C)c3)cnc3cc(OC)c(OC)cc23)CC1`, the survival was inactive: 78%. In the case of `Cc1cc(C)cc(NC2=CC(c3cccc(F)c3)N(c3cc(C)cc(C)c3)C2=O)c1` (centres undefined), the survival is inactive: 78%. The value for `Cc1cc(=O)n(Cc2cccc(Cl)c2)c2c1c(C)nn2-c1ccccc1` was inactive: 55%. `CCN(CC)C(=O)c1sc2c(c1C)c(=O)n(-c1ccccc1)c(=O)n2CC(=O)Nc1ccc(C)cc1C`: the survival is inactive: 78%. As to `CCOc1ccc(CC(=O)NCCc2sc3nc(-c4ccc(OC)cc4)nn3c2C)cc1`, the survival is inactive: 93%.

For the molecule `COc1ccc(NC(=O)c2ccco2)cc1NC(=O)c1cccc(F)c1`, the survival is inactive: 104%. As for `Cc1ccc(S(=O)(=O)Nc2nc3c(s2)C(=O)CC(C)(C)C3)cc1`, the survival was inactive: 119%.

Turning to `CCCCSc1ncnc2c1c(-c1ccccc1)cn2-c1cccc(F)c1`, the survival is inactive: 84%. For `CCN(CC)CCNC(=O)c1ccc2c(c1)sc1nc(-c3ccc(F)cc3)cn12`, the survival is inactive: 27%.

For `Cc1cc2n(n1)C(c1ccccc1)Nc1ccccc1-2` (centres undefined), the survival was inactive: 123%. The value for `CCN(CC)S(=O)(=O)c1nnc(NC(=O)COc2ccc(Cl)cc2)s1` was inactive: 86%; that for `O=C1c2ccccc2CN1c1ccccc1` was inactive: 107%. For `CC(=O)Nc1cc(NC(C)=O)cc(-c2nc3ccccc3[nH]2)c1`, the survival was inactive: 69%.

For the molecule `CCOC(=O)Cn1cnc2onc(-c3ccc(F)cc3)c2c1=O`, the survival is inactive: 132%.

For the molecule `COc1ccc(C(CNC(=O)COc2ccc(Cl)c(C)c2)N2CCOCC2)cc1` (centres undefined), the survival was inactive: 74%. Turning to `Cc1cc(C)cc(NS(=O)(=O)c2ccc3c(c2)NC(=O)C(C)S3)c1` (centres undefined), the survival was active: 12%. The value for `COc1ccc(CN(C(=O)c2ccco2)c2ccccc2)cc1` was inactive: 112%. As for `Cc1ccc(NCc2cc(=O)[nH]c3ccccc23)cc1`, the survival is inactive: 112%.

For `CCOC(=O)c1c(C)oc2nc(C)nc(Nc3ccc(CC)cc3)c12`, the survival was inactive: 115%. `CCn1c(C(=O)N2CCC(C(=O)NCCc3ccc(OC)cc3OC)CC2)cc2sccc21`: the survival was inactive: 121%.

For `COc1cccc2c1Oc1ncccc1N(C(=O)Nc1ccc(F)c(Cl)c1)C2`, the survival was inactive: 131%. `CCOC(=O)C(CC)Sc1ccc2nnc(CCNS(=O)(=O)c3ccc(C)cc3)n2n1` (centres undefined): the survival was inactive: 79%.

For the molecule `Cc1c(C(=O)NCc2ccccc2Br)oc2c1-c1[nH]ncc1CC2`, the survival is inactive: 82%. Take `CCN1CCN(c2c(S(=O)(=O)c3ccc(OC)cc3)cnc3cc(OC)c(OC)cc23)CC1`: the survival is inactive: 77%. Regarding `CCc1ccc(S(=O)(=O)c2nnn3c2nc(NC2CCCCCC2)c2sccc23)cc1`, the survival was inactive: 85%.

In the case of `COc1ccc(NC(=O)c2ccc(-c3nc(CSc4ccccc4)c(C)o3)cc2)cc1OC`, the survival was inactive: 56%.

On to `COc1ccccc1Cc1nc2ccccc2[nH]c1=O`, for which the survival was inactive: 69%. The value for `Cc1ccc(C)c(CN2C(=O)c3ccccc3S(=O)c3ccc(C(=O)NCc4ccccc4)cc32)c1` (centres undefined) was inactive: 97%; that for `COc1ccc(OC)c(NC(=O)Cn2c(=O)n(Cc3ccccc3)c(=O)c3ccccc32)c1` was inactive: 95%. With `O=C(CN1CCCC1)N1c2ccccc2Sc2ccccc21` the figure was inactive: 108%; with `CCn1cc(C(=O)N2CCN(c3cccc(Cl)c3)CC2)c(=O)c2cc(S(=O)(=O)N3CCCCC3)ccc21`, inactive: 77%; with `COc1cc(OC)cc(C(=O)Nc2ccc3nc(N4CCCCC4)cc(C)c3c2)c1`, inactive: 56%. For `COc1ccc(OC)c(NC(=O)N2CCN(S(=O)(=O)c3ccc4c(ccn4C)c3)CC2)c1`, the survival is inactive: 65%. In the case of `COc1ccc(C(CNC(=O)c2oc3ccc(C)cc3c2C)N2CCOCC2)cc1` (centres undefined), the survival was inactive: 72%. The value for `CCCn1c(-c2ccc(S(=O)(=O)N3CCOCC3)cc2)csc1=Nc1ccc(OCC)cc1` was inactive: 98%. The value for `CC(C)Cn1c(=O)c2ccccc2n2c(CCC(=O)N3CCN(c4ccccc4F)CC3)nnc12` was inactive: 127%.

For `COc1ccc(C(=O)C[N+]2=C(C)c3ccc(C)n3CC2)cc1`, the survival is inactive: 110%.

`COc1ccc(Cl)cc1NC(=O)CN(C(=O)c1ccco1)C1CCCCC1`: the survival was inactive: 125%. Regarding `CCCSCCCNC(=O)C1CCN(c2nn3cc(-c4ccc(F)cc4)nc3s2)CC1`, the survival was inactive: 75%. In the case of `O=C(NCc1ccccc1Cl)C(=O)NCC(c1cccs1)S(=O)(=O)c1cccs1` (centres undefined), the survival was inactive: 69%. With `Cc1ccc2nc(-c3ccc(O)cc3)c(Nc3ccc4c(c3)OCCO4)n2c1`, the survival was inactive: 65%.

Regarding `COC(=O)c1ccccc1NC(=O)Cn1c(=O)n(Cc2ccc(C(=O)NCc3ccc4c(c3)OCO4)cc2)c(=O)c2ccccc21`, the survival was inactive: 86%. In the case of `CCOC(=O)CCc1c(C)nc(SCC(=O)O)c(C#N)c1C`, the survival is inactive: 98%.

For the molecule `CCC1CCCCN1CCCNC(=O)c1cc2c(Cl)nc3ccccc3c2s1` (centres undefined), the survival is inactive: 85%.

For the molecule `Cc1ccc(C)n1-c1nnc(N2CCCC(C(=O)Nc3ccc(C(C)C)cc3)C2)s1` (centres undefined), the survival was inactive: 88%. The value for `CC(C)(C)OC(=O)N1CC2C(C1)C2NC(=O)c1nsc(Cl)c1Cl` (centres undefined) was inactive: 109%; that for `Cc1ccc(C)c(N2C(=O)N(Cc3cc(=O)n4ccccc4n3)c3ccccc3S2(=O)=O)c1` was inactive: 82%. With `CCOC(=O)c1c(C)oc2ncnc(Nc3ccc(OCC)cc3)c12`, the survival is inactive: 72%. For the molecule `COc1cccc(C(=O)c2sc3nc(-c4ccccc4)cc(C(F)(F)F)c3c2N)c1`, the survival was inactive: 38%. Consider `CCn1c(SCCN2CCCC2)nnc1C1CCCN(C(=O)c2ccc3c(c2)OCO3)C1` (centres undefined), for which the survival was inactive: 114%.

As for `Cc1ccc(CNC(=O)c2ccc3c(c2)nc(C)n3-c2cc(C)cc(C)c2)cc1`, the survival was inactive: 68%. Turning to `O=C(COc1ccccc1F)Nc1ccc(-c2nc3ccccc3s2)cc1`, the survival was inactive: 90%.

`CCc1cccc(NC(=O)Nc2csc3c2CCCC3)c1`: the survival is inactive: 134%. `O=C(CN1C(=O)CCc2cc(S(=O)(=O)N3CCOCC3)ccc21)NCc1ccc(F)cc1`: the survival is inactive: 78%.

Take `COc1cc(C)ccc1OCCSc1nc2ccc(NC(=O)c3ccc(F)cc3)cc2s1`: the survival is inactive: 71%. With `CCCCOc1ccc(C(=O)Nc2ccc(-c3nc4ccccc4s3)cc2C)cc1`, the survival is inactive: 96%.

`Cn1ccc2cc(S(=O)(=O)N3CCC(C(=O)NCCc4ccccc4)CC3)ccc21`: the survival was inactive: 72%.

For `N#Cc1ccccc1NC(=O)Cn1cnc2onc(-c3cccc(F)c3)c2c1=O`, the survival was inactive: 105%. Turning to `Cc1ccc(N(CC(=O)NCCc2ccccc2)S(=O)(=O)N(C)C)cc1`, the survival is inactive: 84%. On to `COc1cccc(NC(=O)CNC(=O)Cn2c(C)cc3ccccc3c2=O)c1`, for which the survival was inactive: 96%.

Regarding `O=C(Nc1cccc(Cl)c1)N1CCC(n2nnc3cc(F)ccc32)CC1`, the survival was inactive: 107%. Regarding `COc1ccc(Cl)cc1NC(=O)Cn1cc(C(=O)c2ccncc2)c(=O)c2cc(C)ccc21`, the survival is inactive: 81%. As for `Nc1ncc(S(=O)(=O)NCc2ccc(Cl)cc2)cn1`, the survival is inactive: 57%. With `CC(C)NC(=O)c1ccc(-n2c(-c3ccccc3)cc3c2CCCCC3)cc1` the figure was inactive: 114%; with `CCC(Sc1nc2cc(OC)c(OC)cc2c(=O)n1CCc1ccc(Cl)cc1)C(=O)NCCOC` (centres undefined), inactive: 71%. For `Cc1ccc(NC(=O)N(Cc2cn(C)c3ccccc23)C2CCCCC2)cc1C`, the survival is active: -1%.

In the case of `O=C(CSc1nc2ccccc2n1Cc1ccccc1F)NCc1ccccc1`, the survival is inactive: 99%. In the case of `Cc1ccccc1C(=O)Nc1cccc(C(=O)OCc2cc(=O)n3c4c(sc3n2)CCCC4)c1`, the survival was inactive: 64%. In the case of `Cc1cc(C)cc(OCC(=O)Nc2ccc(-c3nc4ccccc4s3)cc2)c1`, the survival is inactive: 88%.

Turning to `COc1cc2nc(SCc3cccc(Cl)c3)n3nc(CCn4nc(C)cc4C)nc3c2cc1OC`, the survival is inactive: 73%. Consider `CCOc1ccc(-c2cc(OC(=O)c3ccccc3)c3c(C)oc(C)c3c(=O)c2)cc1`, for which the survival was inactive: 64%. For `Cn1nnc2c(N3CCN(c4ccccc4F)CC3)ncnc21`, the survival is inactive: 82%. In the case of `Cc1ccc2oc3c(c(=O)c2c1)C(c1ccccc1F)N(CCCN1CCOCC1)C3=O` (centres undefined), the survival was inactive: 71%. `COc1ccc(N(CC(=O)NCCc2ccccc2)S(=O)(=O)c2ccccc2)c(OC)c1`: the survival is inactive: 77%. With `CCCCNC(=O)CSc1nc2cc3c(cc2c(=O)n1CCCCCC(=O)NCc1ccc2c(c1)OCO2)OCO3` the figure was inactive: 57%; with `Cc1ccc(-n2c(SCC(=O)NCc3ccc(F)cc3)nc3c([nH]c4ccccc43)c2=O)cc1`, inactive: 85%.

For `Cc1cc(C)cc(NC(=O)CCc2c(C)nn(-c3ccc(N4CCCC4)nn3)c2C)c1`, the survival was inactive: 71%. With `COc1cc2c(cc1OC)C(COc1ccc(F)cc1)N(C(=O)Cc1ccc(F)cc1)CC2` (centres undefined) the figure was inactive: 71%; with `CCOc1ccc(OCC)c(S(=O)(=O)N2CCN(c3cccc(C)c3C)CC2)c1`, inactive: 42%.
